Experimental data taken from article PMC12040169 (PLOS Biology, 2025).
The other results are listed elsewhere or left out.

These compounds were tested on T1, C. trachomatis L2/434/Bu expressing GFP (CTL2-GFP). Details: total inclusion area; 28.5 h, 10 µM; inhibitor.
T1 construct: L2/434/Bu GFP intracellular growth in HeLa cells
Parameters: species or system HeLa; C. trachomatis total inclusion area by high-content imaging, normalised to DMSO
Method in brief: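 High-content imaging followed the bulk GFP/resorufin measurement: fixed, Hoechst-stained cells were scored for GFP inclusions and host nuclei per well. Total inclusion area and count served as growth proxies, nuclei number as the viability proxy. MIC calculation matched the bulk assay.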

| SMILES | % of control remaining |
| --- | --- |
| Cc1ccc(SCCN2CCN(C)CC2)cc1 [CBK269631C] | 80.3847 |
| CCN(Cc1ccccc1)C(=O)NCCCN1CCN(C)CC1 [CBK155212] | 89.6649 |
| O=C1C[C@@H]2CCN(C(=O)NC3CCCCC3)C[C@@H]2CCN1CCN1CCNC1=O [CBK288796] | 100.917 |
| O=C(Cn1nnc2ccccc2c1=O)NC(Cc1ccccc1)c1ccccc1 (centres unmarked) [CBK296933] | 89.7867 |
| O=C(O)c1ccccc1-c1ccc(-c2cc(C(=O)O)c3cc(Cl)ccc3n2)o1 [CBK268699] | 94.1645 |
| Cc1cc(NC(=O)c2ccc(C(C)(C)C)cc2)nc2c1c(=O)oc1ccccc12 [CBK291200] | 88.8164 |
| c1ccc2nc(N3CCCC3)c(OC3CCNC3)nc2c1 (centres unmarked) [CBK115288] | 78.2192 |
| CC(Oc1cccc2ccccc12)C(=S)N(C)c1ccccc1 (centres unmarked) [CBK016158] | 40.18 |
| Clc1ccccc1-c1nccnc1OC(c1ccccc1)c1ccccc1 [CBK107002] | 64.7388 |
| CC(C)(C)C(=O)NCCn1nc(-c2cccs2)ccc1=O [CBK283839] | 54.1974 |
| Cc1nc(-c2cccnc2)[nH]c(=O)c1CC(=O)N(C)CC1CCCCC1 [CBK305785] | 40.4469 |
| CCC(c1cccc(OC)c1)N(C)C(=O)CC1CCN(c2nc(C)cc(C)n2)CC1 (centres unmarked) [CBK286255] | 99.4303 |
| O=C(Cn1ncc2ccccc2c1=O)NNC(=S)Nc1ccc2c(c1)OCO2 [CBK268751] | 95.5023 |
| C=CCn1cc(CN2CCCC(O)(c3ccc(F)cc3)CC2)c(C)n1 (centres unmarked) [CBK285144] | 105.465 |
| Cc1nccn1CC(C)CNc1ccc(C(=O)c2ccccc2)cc1[N+](=O)[O-] (centres unmarked) [CBK298336] | 90.6233 |
| Cc1ccc2[nH]c(=O)c(CN(Cc3ccccc3)C(=O)NC3CCCCC3)cc2c1 [CBK068704] | 108.227 |
| Cc1noc(C)c1C(=O)N1CCC2(CC1)CC(=O)c1ccc(OCc3ccccc3)c(C)c1O2 [CBK156506] | 87.0289 |
| CC(C)=NOc1ncccc1C#N [CBK007841] | 70.1828 |
| Cc1ccccc1C(NC(=O)C1CCN(C/C=C/c2ccccc2)CC1)c1ncccc1C (centres unmarked) [CBK147980] | 102.647 |
| Cc1ccc(N(CC(=O)Nc2ccccc2F)S(=O)(=O)c2ccc(F)cc2)cc1 [CBK263333] | 85.9179 |
| COc1cccc(C(=O)N2CCCC(c3cc4cnccc4[nH]3)C2)c1 (centres unmarked) [CBK285417] | 85.1804 |
| CC(=O)N1CCN(C(=O)C2C(C(=O)O)C2(C)C)CC1 (centres unmarked) [CBK287021] | 101.746 |
| Cc1cccc(OCCN2C(=O)CC(Cc3cnn(C)c3)C2=O)c1 (centres unmarked) [CBK304081] | 33.2728 |
| CN(C)c1nc(NC2CC2)nc(Oc2ccc(=O)n(-c3ccccc3)n2)n1 [CBK270187] | 72.0216 |
| Cc1nnc(SCC(=O)Nc2nnc(C(C)C)s2)[nH]c1=O [CBK022107] | 86.2274 |
| C[C@H](Nc1nccnc1-c1ccsc1)c1ccccc1 [CBK088716] | 98.8566 |

| SMILES | % of control remaining |
| --- | --- |
| COc1cc2c(cc1-c1cn(CCc3n[nH]c(=O)[nH]3)nn1)CCC2 [CBK307112] | 73.0145 |
| Cc1cc(C)nc(NCc2cnn(C)c2C)n1 [CBK306276] | 31.0521 |
| O=C(O)c1ccc(NS(=O)(=O)c2ccccc2)cc1O [CBK023181] | 89.5024 |
| Cc1cccc2c(C(=O)OCC(=O)c3ccc([N+](=O)[O-])cc3)cc(-c3ccc(Cl)cc3)nc12 [CBK264088] | 107.337 |
| Cc1ccc(C2C=C(c3ccccc3)Nc3nc(N4C(=O)CCC4=O)nn32)cc1 (centres unmarked) [CBK266197] | 105.805 |
| CN1CCC(C(=O)N2CCN(c3ccccc3)CC2)CC1 [CBK200211] | 95.5332 |
| COc1ccc(Cl)cc1N1CCN(Cc2ccc3ccccc3c2)CC1 [CBK126414] | 91.4809 |
| Cc1nc2cc(OCc3ccc(-c4nccnc4-c4nnn[nH]4)cc3)ccc2s1 [CBK050820] | 94.1375 |
| N#CCCN(C(=O)NCc1cccc(C(F)(F)F)c1)C1CCCCC1 [CBK156350] | 94.4033 |
| CN(C)c1ccccc1-c1cc(NC2CCCCC2)ncn1 [CBK037041] | 113.373 |
| O=C(NCc1ccc(F)cc1)c1cc(Br)cnc1N1CCOCC1 [CBK076246] | 116.569 |
| Cc1cc(C(=O)O)c(NC(=O)c2cccc(Cl)c2)s1 [CBK126813] | 92.4381 |
| O=C(Nc1ccc2c(c1)OCCO2)N1CCCCC1CO (centres unmarked) [CBK156178] | 95.4434 |
| Nc1ccc(Oc2ccc(-n3c(=O)c4cc5c(=O)n(-c6ccc(Oc7ccc(N)cc7)cc6)c(=O)c5cc4c3=O)cc2)cc1 [CBK261489] | 116.05 |
| CC(=O)NCC(=O)N1CC[C@@H]2NC(=O)CNC(=O)C3(CCCC[C@H]2C1)CCN(C(C)=O)CC3 [CBK292014] | 107.534 |
| COC(=O)C1CC(O)CN1S(=O)(=O)c1cccs1 (centres unmarked) [CBK086668] | 73.2206 |
| CC(=O)N(C)c1ccc(NS(=O)(=O)c2cc(C)c(Cl)cc2C)cc1 [CBK045298] | 61.1168 |
| Clc1ccc(CN2CCC(Oc3nccnc3OCCN3CCOCC3)CC2)cc1 [CBK082918T] | 75.6578 |
| COc1cc(/C=N/NC(=O)CCn2c3ccc(Cl)cc3c3cc(Cl)ccc32)ccc1O [CBK262351] | 98.9349 |
| CC(=O)N1CCN(C(=O)C[C@@H]2C[C@@H](C(C)C)[C@H](CNC(=O)c3cccnc3)C=C2C)CC1 [CBK289046] | 98.5856 |
| Cn1ccc(C(=O)N2CCOC(c3nc(C(C)(C)C)n[nH]3)C2)cc1=O (centres unmarked) [CBK305201] | 28.8304 |
| COc1cc(-c2nccnc2NCCc2c[nH]c3ccccc23)cc(OC)c1OC [CBK038015] | 165.151 |
| COc1ccc(CCNC(=O)[C@@H]2Cc3c([nH]c4ccccc34)[C@]3(CCN(Cc4ccccc4)C3)N2)cc1OC [CBK062620] | 77.3489 |
| Cn1ncc2c(=O)n(Cc3noc(-c4ccco4)n3)cnc21 [CBK305053] | 80.2402 |
| COc1ccc(C(C)C)cc1-c1cncc(N2CCC(C(=O)O)CC2)n1 [CBK037900] | 79.247 |
| O=C(CCc1nc(=O)c2c3c(sc2[nH]1)CCC3)N1CCCCCC1 [CBK306388] | 71.0916 |

| SMILES | % of control remaining |
| --- | --- |
| COCC(C)NC(=O)C1CCCN(S(=O)(=O)c2ccc(OC)c(C)c2)C1 (centres unmarked) [CBK270242] | 77.4838 |
| Cn1nccc1C(=O)C1CCN(C(=O)c2cccc(F)c2)CC1 [CBK284426] | 87.3767 |
| CC(C)(CO)Cn1c(=O)[nH]c2ncc(-c3ccc(F)c(Cl)c3)nc21 [CBK064737] | 92.8293 |
| N#Cc1c(Oc2cccc3cccnc23)cccc1C(F)(F)F [CBK002728] | 93.854 |
| O=C(CSC1c2ccccc2Oc2ccccc21)Nc1cccc(C(=O)O)c1 [CBK266566] | 111.98 |
| CS(=O)(=O)N1CCN(CC(O)Cn2c3ccc(Cl)cc3c3cc(Cl)ccc32)CC1 (centres unmarked) [CBK264381] | 85.878 |
| CCOC(=O)N1CCC(NC(=O)c2ccc(Nc3cncc(-c4ccc(O)cc4)n3)cc2)CC1 [CBK115694] | 94.1879 |
| NC(=O)OC(c1ccccc1[N+](=O)[O-])P(=O)(c1ccccc1)c1ccccc1 (centres unmarked) [CBK261383] | 87.9248 |
| Nc1nnc(SCC(=O)c2ccc3ccccc3c2)s1 [CBK266120] | 0 |
| CC(=O)Oc1ccc(-c2cccc(C(=O)NCC(=O)O)c2)cc1 [CBK263828] | 63.7899 |
| O=C(Nc1nccs1)c1cc(C2CCN(C(=O)CC3CCCCC3)C2)nc2ccccc12 (centres unmarked) [CBK285586] | 41.1158 |
| CN(CC(=O)NCc1ccc2c(c1)OCO2)Cc1ccc(Br)s1 [CBK295185] | 108.604 |
| O=C1c2ccc(-c3nc4ccc(Cl)cc4c(=O)o3)cc2C(=O)N1Cc1cccnc1 [CBK268460] | 112.589 |
| COc1ccc(C(=O)NC2CCCNC2=O)s1 (centres unmarked) [CBK282938] | 106.451 |
| O=C(NCC1(O)CCSC1)c1c[nH]nc1-c1cc2ccccc2o1 (centres unmarked) [CBK306159] | 94.4426 |
| CC(=O)c1ccc(-c2ccc(/C=C\c3[nH]c(=O)[nH]c(=O)c3[N+](=O)[O-])o2)cc1 [CBK267038] | 101.507 |
| O=C1Nc2ccc(-c3ccc(Cl)cc3)cc2C(=O)N2CCN(C(=O)c3cccnc3)C[C@H]12 [CBK289590] | 98.9105 |
| O=c1[nH]c(=O)c2cc(S(=O)(=O)Nc3cccc(CCc4ccccn4)c3)ccc2[nH]1 [CBK286389] | 96.7683 |
| CC1=C(C)CC(C(=O)Nc2sc3c(c2C(=O)OC(C)C)CCCC3)C(C(=O)O)C1 (centres unmarked) [CBK265428] | 82.7711 |
| O=C(C1CC1)N1CC2CCCC(C1)C2(O)c1cccnc1F (centres unmarked) [CBK282889] | 72.1125 |
| Nn1cnnc1SC1CCCCC1NS(=O)(=O)c1ccccc1 (centres unmarked) [CBK266361] | 124.262 |
| Cc1cc(-c2cc(C(=O)NN3CCN(C)CC3)c3cc(Cl)ccc3n2)c(C)s1 [CBK267738] | 106.126 |
| Cc1cc([N+](=O)[O-])cc2c1NC(=O)C2(O)N1CCOCC1 (centres unmarked) [CBK262475] | 91.8531 |
| OCCNc1cncc(-c2ccc3c(c2)OCO3)n1 [CBK065979] | 58.8937 |
| Cc1nnc(CCNC2CCN(c3ncnc4c(C)csc34)CC2)s1 [CBK307574] | 64.2501 |
